Results on 42 sequences are retold here after paper PMC7819943, “Rice protein-binding microarrays: a tool to detect cis-acting elements near promoter regions in rice”.

This is one part of the list.

The target of the assay is T1, OsWOX13 (Oryza sativa, UniProt Q5QMM3 1-267).
T1 sequence: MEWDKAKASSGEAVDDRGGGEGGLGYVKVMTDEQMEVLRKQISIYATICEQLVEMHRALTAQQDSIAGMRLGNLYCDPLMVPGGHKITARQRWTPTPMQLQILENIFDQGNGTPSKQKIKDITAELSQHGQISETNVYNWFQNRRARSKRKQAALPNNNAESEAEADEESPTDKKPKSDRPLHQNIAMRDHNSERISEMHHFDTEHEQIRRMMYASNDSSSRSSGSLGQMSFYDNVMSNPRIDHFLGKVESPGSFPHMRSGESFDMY
The assay can be described thus: protein-binding microarray (RPBM); PBS, 2% BSA, 51.3 ng/ul salmon testes DNA, 50 uM zinc acetate, 200 nM TF, 25 C, 1 h; high values mean tight binding. To be noted: protein: recombinant; tags: N-terminal polyhistidine and DsRed monomer fusion (pET32a); label: CyDye5-dUTP incorporated in the synthesized complementary strand; 3' TTTTT single-stranded linker to array surface; dsDNA, one strand shown. In short, it runs like this:
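For the binding signal, per-feature fluorescence intensity was read in arbitrary units on an Axon 4000B scanner. Before scanning, a 2% BSA-blocked custom Agilent array made double-stranded with Cy5-dUTP was washed after 1 h at 25 °C with 200 nM protein and 50 µM zinc acetate. The proteins were Ni–NTA-purified transcription factors with N-terminal polyhistidine and DsRed fusions, expressed in E. coli BL21-CodonPlus.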
As for “ACTTGATGACATCATACTGACATGGGCGTCCGATTCCTAGCGGAGTCACCTAGTGCAG”, the binding signal was 16500 fluorescence intensity (a.u.).

As for “ATAATTATGCTTCTGTTTTAAGTACCTCGTCATAATGAAGCGGAGTCACCTAGTGCAG”, the binding signal is 3900 fluorescence intensity (a.u.). In the case of “GGCATGACAGGAGCAGTTTCCTTCTTGGATTCAGATTCCCCGGAGTCACCTAGTGCAG”, the binding signal is 3790 fluorescence intensity (a.u.). Under “ATATAATAGATTAACTATAAAGTTGGCTATAATATATTTCCGGAGTCACCTAGTGCAG” stands 6360 fluorescence intensity (a.u.); under “TGTTAATTACCGCAAACCAGAATTGGTTTTCTTAACATGCCGGAGTCACCTAGTGCAG”, 40500 fluorescence intensity (a.u.). In the case of “ATACTCCAATCAACCAACCCGTCATATGGGACGCCATTATCGGAGTCACCTAGTGCAG”, the binding signal was 16300 fluorescence intensity (a.u.). The same measure for “CATGTATTACACTAGTATTAATTGATCCGGGAAAATCTAGCGGAGTCACCTAGTGCAG”: 10200 fluorescence intensity (a.u.); for “GAGGGGTAAATAGTTAATTATTCCTCTATTTTGGGTGGAGCGGAGTCACCTAGTGCAG”: 6010 fluorescence intensity (a.u.); for “CGCTAATTAGCCAAGCCATTGTACGTGCCGCTAATAAGCTCGGAGTCACCTAGTGCAG”: 42700 fluorescence intensity (a.u.). With “GTCTCAATTAATGGATTGATCACTTCTAATACTTTGTAAACGGAGTCACCTAGTGCAG”, the binding signal was 5000 fluorescence intensity (a.u.).

Turning to “TTTGATTGAGAACTACAATGCTTTGGAGGATGAGAATGGACGGAGTCACCTAGTGCAG”, the binding signal was 25700 fluorescence intensity (a.u.). Consider “TAAAATTATTGTGGAATGTCAATGAACCAGTAAATTCTAGCGGAGTCACCTAGTGCAG”, for which the binding signal was 3380 fluorescence intensity (a.u.).

As for “AAAGACAGACTCCTAATTGCAGCTCATGATTTTCTAAAAGCGGAGTCACCTAGTGCAG”, the binding signal was 32200 fluorescence intensity (a.u.).

Take “CGAATTTAAACAGAGATATGTATCCCATATAATCCGTTGTCGGAGTCACCTAGTGCAG”: the binding signal is 6250 fluorescence intensity (a.u.).

As to “AAATTGATGGACGCTTGAGTCGGATAGGATCCATCGATTTCGGAGTCACCTAGTGCAG”, the binding signal is 15100 fluorescence intensity (a.u.). For “CAGTCCAATTAATTTTCTCTGTGATCCGGTGCCCTCTGACCGGAGTCACCTAGTGCAG”, the binding signal is 18700 fluorescence intensity (a.u.). On to “TAAGTTAATGATTAGAGCTTTTATCGTCTCAACTGTCATACGGAGTCACCTAGTGCAG”, for which the binding signal was 24700 fluorescence intensity (a.u.).

For “GGTACTGATACTAATTACTAAATGCCTAAGACTTTTGATGCGGAGTCACCTAGTGCAG”, the binding signal was 10800 fluorescence intensity (a.u.). As for “GTGTTAGCCCCTGATTAGTTGACAGGAGTAGATTAATAGTCGGAGTCACCTAGTGCAG”, the binding signal is 10400 fluorescence intensity (a.u.). Under “CAAACAGTCAATTAGGCCTAAACAAGTTGCTACGAGCTAGCGGAGTCACCTAGTGCAG” stands 33200 fluorescence intensity (a.u.); under “AAACTATTACTGATAATCTATTTGTTGTTAAAGGCTTTTGCGGAGTCACCTAGTGCAG”, 8230 fluorescence intensity (a.u.); under “TGACATTTCCATCAATTTAGTTACACTGACAGGTGGGCCCCGGAGTCACCTAGTGCAG”, 14200 fluorescence intensity (a.u.). The same measure for “CCCTGTCAATCAATCATCCAAAGTTCAAAACAATTCAAATCGGAGTCACCTAGTGCAG”: 38200 fluorescence intensity (a.u.). For “ATTACGCCATGATTTGACAATGTGATGCTACAGTAAACATCGGAGTCACCTAGTGCAG”, the binding signal is 7010 fluorescence intensity (a.u.). Under “GTACAATTGCATCTAAATGATCATTTAGGTGTACACCTAACGGAGTCACCTAGTGCAG” stands 5980 fluorescence intensity (a.u.); under “AATATTAAATAATCTAACTTGATTTGTTGTAATATCTTATCGGAGTCACCTAGTGCAG”, 5590 fluorescence intensity (a.u.); under “AGAGAGATTGAGAGGAAGAGGAGGGAAAGAGACAGGTGAGCGGAGTCACCTAGTGCAG”, 4180 fluorescence intensity (a.u.). For “GAGATGATAATGATGATGGAATGTGCACGTTGAATAAAACCGGAGTCACCTAGTGCAG”, the binding signal was 12000 fluorescence intensity (a.u.).

In the case of “CATAACTTACAATTGGGCTACACCTATTACTGACAGCAAACGGAGTCACCTAGTGCAG”, the binding signal was 3340 fluorescence intensity (a.u.). Consider “ATGCTACTACTAATTACTAAACATCACAGCCTCAGAGAATCGGAGTCACCTAGTGCAG”, for which the binding signal was 4240 fluorescence intensity (a.u.).

For the sequence “TTACATGATTAAATGGTCTTCTTGAATTTTGCGGTGACATCGGAGTCACCTAGTGCAG”, the binding signal is 8150 fluorescence intensity (a.u.). On to “GCCCAAGTCATCAATCTTCAACTAATCGATTTGGACAGTTCGGAGTCACCTAGTGCAG”, for which the binding signal is 3350 fluorescence intensity (a.u.).

Consider “CTGGTAATAGAATTAATATTCACATATAGGAGTATCTCCCCGGAGTCACCTAGTGCAG”, for which the binding signal is 7630 fluorescence intensity (a.u.). With “CCGATAAATTTAATCCGTTTCTTAACCGATTCCGCACCGACGGAGTCACCTAGTGCAG”, the binding signal was 13700 fluorescence intensity (a.u.). The same measure for “CCACTGCCCAATCATTTTCACTCGCAGATAATAATCTCAACGGAGTCACCTAGTGCAG”: 3740 fluorescence intensity (a.u.); for “AATAAACTTCCTCCTTGATTGGGCTGGGTCGCGTACCCGACGGAGTCACCTAGTGCAG”: 18700 fluorescence intensity (a.u.); for “AAATGAGCTAATTATATATGTTGATATTTGTTCTAGAAGTCGGAGTCACCTAGTGCAG”: 3420 fluorescence intensity (a.u.).

Consider “GTTAATTTTGAAGTGAATAAACTTTTGCGTATGTATGTAACGGAGTCACCTAGTGCAG”, for which the binding signal was 21800 fluorescence intensity (a.u.).

Consider “AATTTAACCAAATCAATTTATTGTATCGTATAAATGTGATCGGAGTCACCTAGTGCAG”, for which the binding signal was 15100 fluorescence intensity (a.u.). Consider “CTTCAATCTGTTCATTACAATCTCTCTCTCTCTCTCTCTCCGGAGTCACCTAGTGCAG”, for which the binding signal was 3930 fluorescence intensity (a.u.). In the case of “TTGATATTTAATAAATTATATATAGATAATATACATATGACGGAGTCACCTAGTGCAG”, the binding signal is 6240 fluorescence intensity (a.u.). In the case of “AATAATTTGGTTCCTGGACGAATTGGCCCAGGTTTCGAGTCGGAGTCACCTAGTGCAG”, the binding signal was 11200 fluorescence intensity (a.u.).
